Source: PubChem BioAssay AID2147 (National Center for Advancing Translational Sciences (NCATS), 2009)
The campaign covered roughly 230,000 compounds. About 3,600 (1.6%) were called active. Inconclusive results, whose numbers are uncertain, are shown with a selection of clear calls. Calls come from the whole dose curve; as a rule, active = well fitted inhibition curve with a large enough effect (not every such curve was filed as active); inconclusive = small, poorly fitted or top-dose-only effect, or another doubt; inactive = no such curve, though single readings can be large or run the other way. Where the call is inconclusive, the potency comes from a doubtful curve fit.

Target: Lysine-specific demethylase 4E (Homo sapiens) (UniProt B2RXH2)
Experiment: qHTS Assay for Inhibitors of Human Jumonji Domain Containing 2E (JMJD2E)
Details: JMJD2E catalytic domain, FDH-coupled NADH fluorescence (FDH is formaldehyde dehydrogenase); series mostly up to 57.1 µM; activity change, negative = inhibition: at the top concentration
Note: nearly all actives have a fitted effect of over 50% in size.
Potency is the fitted concentration of half-maximal effect; tags give direction and shape of the fitted curve.
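Throughout, for activity change, negative = inhibition: 0% = wells with enzyme and -100% = buffer wells without enzyme.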

Chain of UniProt B2RXH2 (B2RXH2 whole entry, looked up, the tested form may be a part): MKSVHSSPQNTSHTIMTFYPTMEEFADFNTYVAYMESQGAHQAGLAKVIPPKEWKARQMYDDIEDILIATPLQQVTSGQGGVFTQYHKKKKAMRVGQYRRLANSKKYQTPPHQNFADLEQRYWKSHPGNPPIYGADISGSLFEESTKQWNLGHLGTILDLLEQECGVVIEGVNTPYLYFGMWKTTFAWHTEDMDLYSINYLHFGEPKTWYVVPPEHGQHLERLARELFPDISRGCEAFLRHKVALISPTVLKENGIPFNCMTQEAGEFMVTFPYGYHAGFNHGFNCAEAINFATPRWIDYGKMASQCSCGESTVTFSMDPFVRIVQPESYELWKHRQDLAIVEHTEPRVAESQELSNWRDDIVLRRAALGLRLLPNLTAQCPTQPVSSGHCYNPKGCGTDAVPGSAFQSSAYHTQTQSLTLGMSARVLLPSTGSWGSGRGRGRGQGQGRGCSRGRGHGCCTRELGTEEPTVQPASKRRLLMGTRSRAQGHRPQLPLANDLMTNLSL

Compound | Potency | activity change, negative = inhibition
CC(C)NCC(=O)Nc1c2c(nc3ccccc13)CCC2 | inconclusive: 28.2 µM [inhibitor, single point] | 
O=C(O)CCCC(=O)N1CCN(c2cccc(Cl)c2)CC1 | inconclusive: 39.8 µM [inhibitor, single point] | 
COCC1=C2c3ccccc3[C@H](C[N+](=O)[O-])C(C(=O)OC)(C(=O)OC)CC2C2C(=O)N(c3ccccc3)C(=O)C2C1 (some centres undefined) | inconclusive: 6.31 µM [inhibitor, single point] | 
N#CC1=C(N)C(C#N)(C#N)C(c2cccnc2)C2COCC=C12 (centres undefined) |  | inactive: -20.1%
COc1cccc(NC(=O)CCNS(=O)(=O)c2cccc3nsnc23)c1 |  | inactive: -7.25%
Cc1ccc(S(=O)(=O)NC(C)(C)CSc2nnc(Nc3ccccc3)s2)cc1 |  | inactive: -1.95%
CCN(CC)c1ccc(-c2n[nH]c(=S)n2-c2ccccc2)cc1 | inconclusive: 31.6 µM [inhibitor, partial curve] | 
COc1ccc(-c2cc(C(F)(F)F)n3ncc(C(=O)O)c3n2)cc1OC | inconclusive: 17.8 µM [inhibitor, partial curve] | 
O=C(O)CCC1(c2ccccc2)NC(=O)NC1=O (centres undefined) |  | inactive: -29.6%
CCOCCCNC(=S)N1CCCN(c2nc3cc(C)ccc3cc2C#N)CC1 | inconclusive: 35.5 µM [inhibitor, partial curve] | 
O=C(N/N=C\c1cc(Cl)ccc1O)c1ccc(S(=O)(=O)N2CCCCC2)cc1 | inconclusive: 28.2 µM [inhibitor, single point] | 
CCOC(=O)COc1cccc2c(=O)n(CC(=O)N3CCCCC3)ccc12 | inconclusive: 31.6 µM [inhibitor, single point] | 
NC(=O)C(C(=O)/C=C/c1ccc(Cl)cc1)=C1SCCS1 | inconclusive: 39.8 µM [inhibitor, single point] | 
COC(=O)[C@@H]1C[C@@]2(O)[C@@H](O)[C@@H](O)[C@@H](O)C[C@H]2N1Cc1cc(OC)cc(OC)c1 | inconclusive: 39.8 µM [inhibitor, single point] | 
CC(C)OC(=O)[C@@H]1CC[C@H](C)[C@@H](CCC[C@@H]2CC=C[C@H](CC#N)O2)O1 |  | inactive: -2.72%
c1ccc(CCNc2nc3ccccc3n3nnnc23)cc1 | inconclusive: 31.6 µM [inhibitor, single point] | 
CC12CN(C(=O)c3ccc(Cl)cc3)C3(C#N)CC1CCC23C (centres undefined) |  | inactive: 1.64%
O=C(Nc1cccc(-c2cn3cccnc3n2)c1)Nc1ccccc1F | inconclusive: 25.1 µM [inhibitor, partial curve] | 
CSc1nc2nc3c(cc2c(=O)n1-c1ccc(C)cc1)COC(C)(C)C3 | inconclusive: 31.6 µM [inhibitor, single point] | 
